# Assay results published in the supplement of paper PMC11417369.
# ± gives the standard deviation of the averaged measurements. The list shows a part of the results.
# Tested on: PfAP2-EXP AP2 domain (GST-tagged)
# Assay: gcPBM binding intensity (ln(normalized median fluorescence intensity)); higher = stronger DNA binding
# In short: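 Plasmodium falciparum DNA-binding domains carrying a GST tag were expressed in E. coli and applied for 1 h, at about 25 μg on average, to an Agilent 4 × 180k array. The array held primer-extended double-stranded 36-bp intergenic genomic probes together with negative controls, and binding took place in 1× PBS with 1% milk, 0.2 mg/ml BSA, 0.5% salmon testes DNA and 0.03% Triton X-100. An Alexa488 anti-GST antibody detected bound protein, and the array was scanned at 488 nm. Binding intensity is taken as the highest Masliner-normalised natural-log median intensity across replicate spots of either probe orientation.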
row,Sequence,gcPBM binding intensity (ln)
1,ATATATAAACTGAAGGGTACAATGAAAAAAGAACTT [XGTACX_site7219],9.08 ± 0.59
2,TAGGATTTTTAGTTTATTGTAACTATTATTTTATTT [CACACA_negctrl_site829],8.25 ± 0.4
3,ATTCATATATATTATACACACACATATATAAATATA [CACACA_site8228],8.56 ± 0.38
4,AAAAATACCTGAATATGTACATATGATCAATGGGCC [XGTACX_site887],9.08 ± 0.67
5,AAAATCGTGTTCTGAATACACACTAATACAAAGTTG [CACACA_site3985],8.35 ± 0.4
6,AGAAGTTTAAAAAGCACACAAAAAAAAAAAAAAAGA [CACACA_site3309],8.46 ± 0.47
7,AAATAAAATAAAAACATGCACACTTTATTTTTTTTA [CACACA_site2800],8.49 ± 0.26
8,TAAAAATATAAATTTTGTACGTAAAAAATGGTTCTT [XGTACX_site1506],8.57 ± 0.39
9,TATTCTATATAATAATGTACGTGATTTAAATTTTCA [XGTACX_site6650],8.41 ± 0.28
10,TGACCGTTTTAAGAGTGTACAAAAAAAAAAAAAAAA [XGTACX_site4141],8.21 ± 0.43
11,TAAAAAATAAGATATACACACATATATATATATATA [CACACA_site2324],10.2 ± 0.42
12,ATTCACATACATTACTTACACACCATATTAATATAT [CACACA_site459],8.85 ± 0.23
13,TAACATATTAATAACATATTTATAATATATTAATAA [TGCATGCA_negctrl_site243],7.83 ± 0.4
14,AAAAAAAAAAAAAAGGAACACACAAGTAACAATAAA [CACACA_site8792],8.74 ± 0.64
15,AATTATACTTCCTTCACACAGTTACATCATATATTA [CACACA_site5942],8.92 ± 0.41
16,ATTAAAAAAAAAAAAAGTACTTATAATTATACTCGT [XGTACX_site4852],8.37 ± 0.38
17,AGACCTTTAATTTGTGTGCACATAATTAGTGTACAT [GTGCAC_site9434],9.22 ± 0.42
18,TTCAAATTGTTTATATGTACTTATAAAAATTGTCTG [XGTACX_site977],8.35 ± 0.42
19,ACAAATAAAAATATTACACACACTATTATATTGATA [CACACA_site1494],8.38 ± 0.43
20,TTATATTATATATATGTGCACATTTTTAAACTTGGA,8.71 ± 0.27
21,AAATATTTATATGTTACACACTGTTGATAATTTTCT [CACACA_site1347],8.34 ± 0.54
22,GGAAGATGAAAAATAAAGCATGTGCTGTACAAACGA [CACACA_negctrl_site1625],8.96 ± 0.49
23,ACTTATTTCGATATGTGTACTTAATATATATATTTA [XGTACX_site6616],8.68 ± 0.32
24,AAAAATATTTTGGTTTGTACATATATTTTTACAATA [XGTACX_site8691],8.51 ± 0.45
25,ATTTTTGTAATTATTTGTACACATTTATTTATGTGT [XGTACX_site1864],8.68 ± 0.33
